# Some of the results follow.
# B1: B1257 (Bifidobacterium sp) (protein)
# chain: MKKSIRLVAAIAALAMTAGISACGSSTNGNQAKSDVTAQDVETALTDTSKNVELTVWAYSAKQMEPTVKAFEKKYPHIKINFVNTGAAGDHFTKFQNVVQAQKDIPDVVQMGANKFQQFAVSGALLNFANDSIEKAWSKLYTKTAWAQVHYAGGLYGAPQDATPLANYVRKDILDEHNLQVPESWEDIYNEGIKLHKEDSNKYMGILGSDISFFTNLYRSVGARLWKVNSVDDVELTMNSGKAKEFTEFLQKCLKDGVLEGGTVFTDEFNRSINDGRYATFINENWMGNTYKEQNPSLKGKMVVAAPPSWKGQPYQSSSVGSMMSVSAACPKEKQAAALAFINWLDSDKDAIQSWQDTNNGNFFMAASVYQDDENQRNKKETDGYYANDDVNAVYFDSMDKVNTDWEYLPFMSQVEVVFNDVIVPQMNENGDLVGAMAKAQQELKTYAKDNGFKVTTDAD
# How the values were obtained:
# Experiment in all cases: glycan array binding signal (z-score within array); higher = stronger binding
# Details in all cases: glycan notation: IUPAC condensed, linker removed
# Gal6S(b1-4)Glc6S = biological target: Gal6S(b1-4)Glc6S
# Outline: (§1)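 The Consortium for Functional Glycomics database supplied 3228 glycan arrays, of which those lacking an available protein sequence were dropped. The binding signal, a within-array Z-score, was averaged across arrays of the same protein sequence and across linkers. Negative scores can be read as non-binding.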
# Gal6S(b1-4)GlcNAc = biological target: Gal6S(b1-4)GlcNAc
# Outline: as §1
# Gal6S(b1-4)GlcNAc6S = biological target: Gal6S(b1-4)GlcNAc6S
# Outline: as §1
# GalNAc(a1-3)Gal = biological target: GalNAc(a1-3)Gal
# Outline: as §1
# GalNAc(a1-3)GalNAc = biological target: GalNAc(a1-3)GalNAc
# Outline: as §1
# [1] = biological target: GalNAc(a1-3)GalNAc(b1-3)Gal(a1-4)Gal(b1-4)Glc
# Outline: as §1
# [2] = biological target: GalNAc(a1-3)GalNAc(b1-3)Gal(a1-4)Gal(b1-4)GlcNAc
# Outline: as §1
# GalNAc(b1-3)Gal = biological target: GalNAc(b1-3)Gal
# Outline: as §1
# [3] = biological target: GalNAc(b1-3)Gal(a1-4)Gal(b1-4)GlcNAc
# Outline: as §1
# [4] = biological target: GalNAc(b1-3)Gal(a1-4)Gal(b1-4)GlcNAc(b1-3)Gal(b1-4)Glc
# Outline: as §1
# [5] = biological target: GalNAc(b1-3)Gal(a1-6)Gal(b1-4)Glc
# Outline: as §1
# GalNAc(b1-3)GalNAc = biological target: GalNAc(b1-3)GalNAc
# Outline: as §1
# GalNAc(b1-3)GlcNAc = biological target: GalNAc(b1-3)GlcNAc
# Outline: as §1
# GalNAc(b1-4)Gal(b1-4)Glc = biological target: GalNAc(b1-4)Gal(b1-4)Glc
# Outline: as §1
# GalNAc(b1-4)GlcNAc = biological target: GalNAc(b1-4)GlcNAc
# Outline: as §1
# [6] = biological target: GalNAc(b1-4)GlcNAc(b1-2)Man
# Outline: as §1
# [7] = biological target: GalNAc(b1-4)GlcNAc(b1-2)Man(a1-3)[GalNAc(b1-4)GlcNAc(b1-2)Man(a1-6)]Man(b1-4)GlcNAc(b1-4)GlcNAc
# Outline: as §1
# [8] = biological target: GalNAc(b1-4)GlcNAc(b1-3)GalNAc(b1-4)GlcNAc
# Outline: as §1
# GalNAc(b1-4)GlcNAc6S = biological target: GalNAc(b1-4)GlcNAc6S
# Outline: as §1
# GalNAc(b1-6)GalNAc = biological target: GalNAc(b1-6)GalNAc
# Outline: as §1
# GalNAc3S(b1-4)GlcNAc = biological target: GalNAc3S(b1-4)GlcNAc
# Outline: as §1
# GalNAc3S(b1-4)GlcNAc3S = biological target: GalNAc3S(b1-4)GlcNAc3S
# Outline: as §1
# [9] = biological target: GalNAc3S(b1-4)[Fuc(a1-3)]GlcNAc
# Outline: as §1
# GalNAc4S6S(b1-4)GlcNAc = biological target: GalNAc4S6S(b1-4)GlcNAc
# Outline: as §1
# GalNAc6S(b1-4)GlcNAc = biological target: GalNAc6S(b1-4)GlcNAc
# Outline: as §1
# Glc(a1-4)Glc = biological target: Glc(a1-4)Glc
# Outline: as §1
# [10] = biological target: Glc(a1-4)Glc(a1-4)Glc(a1-4)Glc
# Outline: as §1
# Glc(a1-6)Glc(a1-6)Glc = biological target: Glc(a1-6)Glc(a1-6)Glc
# Outline: as §1
# [11] = biological target: Glc(a1-6)Glc(a1-6)Glc(a1-6)Glc
# Outline: as §1
# Glc(b1-4)Glc = biological target: Glc(b1-4)Glc
# Outline: as §1
# Glc(b1-6)Glc = biological target: Glc(b1-6)Glc
# Outline: as §1
# GlcA(b1-3)Gal = biological target: GlcA(b1-3)Gal
# Outline: as §1
# GlcA(b1-3)GlcNAc = biological target: GlcA(b1-3)GlcNAc
# Outline: as §1
# GlcA(b1-6)Gal = biological target: GlcA(b1-6)Gal
# Outline: as §1
# [12] = biological target: GlcA3S(b1-3)Gal(b1-4)GlcNAc(b1-2)Man
# Outline: as §1
# [13] = biological target: GlcA3S(b1-3)Gal(b1-4)GlcNAc(b1-3)Gal(b1-4)Glc
# Outline: as §1
# [14] = biological target: GlcNAc(a1-3)Gal(b1-4)GlcNAc
# Outline: as §1
binder,measurement,setting,value
B1,glycan array binding signal (z-score),Gal6S(b1-4)Glc6S,-0.015
same,glycan array binding signal (z-score),Gal6S(b1-4)GlcNAc,-0.16
same,glycan array binding signal (z-score),Gal6S(b1-4)GlcNAc6S,-0.133
same,glycan array binding signal (z-score),GalNAc(a1-3)Gal,0.019
same,glycan array binding signal (z-score),GalNAc(a1-3)GalNAc,-0.155
same,glycan array binding signal (z-score),[1],-0.048
same,glycan array binding signal (z-score),[2],-0.089
same,glycan array binding signal (z-score),GalNAc(b1-3)Gal,-0.047
same,glycan array binding signal (z-score),[3],-0.087
same,glycan array binding signal (z-score),[4],-0.065
same,glycan array binding signal (z-score),[5],-0.117
same,glycan array binding signal (z-score),GalNAc(b1-3)GalNAc,-0.091
same,glycan array binding signal (z-score),GalNAc(b1-3)GlcNAc,-0.223
same,glycan array binding signal (z-score),GalNAc(b1-4)Gal(b1-4)Glc,-0.111
same,glycan array binding signal (z-score),GalNAc(b1-4)GlcNAc,-0.065
same,glycan array binding signal (z-score),[6],-0.154
same,glycan array binding signal (z-score),[7],1.83
same,glycan array binding signal (z-score),[8],-0.085
same,glycan array binding signal (z-score),GalNAc(b1-4)GlcNAc6S,-0.041
same,glycan array binding signal (z-score),GalNAc(b1-6)GalNAc,-0.048
same,glycan array binding signal (z-score),GalNAc3S(b1-4)GlcNAc,-0.145
same,glycan array binding signal (z-score),GalNAc3S(b1-4)GlcNAc3S,-0.117
same,glycan array binding signal (z-score),[9],-0.063
same,glycan array binding signal (z-score),GalNAc4S6S(b1-4)GlcNAc,-0.106
same,glycan array binding signal (z-score),GalNAc6S(b1-4)GlcNAc,-0.132
same,glycan array binding signal (z-score),Glc(a1-4)Glc,-0.017
same,glycan array binding signal (z-score),[10],-0.138
same,glycan array binding signal (z-score),Glc(a1-6)Glc(a1-6)Glc,0.008
same,glycan array binding signal (z-score),[11],-0.037
same,glycan array binding signal (z-score),Glc(b1-4)Glc,-0.13
same,glycan array binding signal (z-score),Glc(b1-6)Glc,-0.121
same,glycan array binding signal (z-score),GlcA(b1-3)Gal,-0.093
same,glycan array binding signal (z-score),GlcA(b1-3)GlcNAc,0.076
same,glycan array binding signal (z-score),GlcA(b1-6)Gal,-0.003
same,glycan array binding signal (z-score),[12],-0.041
same,glycan array binding signal (z-score),[13],-0.125
same,glycan array binding signal (z-score),[14],0.086

# — the supplement of paper PMC8728848
